# Test results published in the BET-seq Pho4 binding data (Le et al. 2018).
# The other results are listed elsewhere or left out. These are noisy estimates, calculated here from bound and input reads.
# Target: T1, Pho4 (S. cerevisiae) (UniProt P07270)
# T1 sequence: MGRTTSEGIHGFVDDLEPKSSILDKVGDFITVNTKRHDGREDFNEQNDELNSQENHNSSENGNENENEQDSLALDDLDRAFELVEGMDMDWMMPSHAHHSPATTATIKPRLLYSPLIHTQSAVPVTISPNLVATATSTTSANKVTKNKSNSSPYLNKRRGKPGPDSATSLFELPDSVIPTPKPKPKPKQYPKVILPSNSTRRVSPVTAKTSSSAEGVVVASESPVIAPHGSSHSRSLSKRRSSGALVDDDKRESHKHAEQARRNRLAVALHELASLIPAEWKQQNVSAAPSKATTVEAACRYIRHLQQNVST
# Test: relative binding free energy (BET-seq); higher = weaker binding
# Conditions: reference: library average
row,Sequence,relative binding free energy [kcal/mol]
1,TGGTGCACGTGTAACT,0.03
2,TGTACCACGTGTTGGT,-0.14
3,GTGAGCACGTGGGTAC,-0.12
4,AATGCCACGTGGGGGC,-0.26
5,TTGGACACGTGTTACT,-0.02
6,GTGTGCACGTGGACGT,0.01
7,TTTGACACGTGGACGT,0.08
8,CGTGGCACGTGGGTAC,-0.36
9,TGTTGCACGTGTCTGT,-0.06
10,GCATTCACGTGGGGGA,0.05
11,TGATTCACGTGTAAAT,0.35
12,TCGCGCACGTGTGTGG,-0.06
13,TTAAACACGTGTGTAT,-0.1
14,GTATTCACGTGAGTAG,0.42
15,TTGCGCACGTGACTTG,0.07
16,GGGGGCACGTGCAGGT,-0.06
17,CATATCACGTGTTTGA,0.1
18,TGGCTCACGTGCGTTA,0.29
19,TGGAGCACGTGTTGAG,-0.06
20,AGCATCACGTGTTGGG,-0.03
21,TAATGCACGTGGTCAT,-0.14
22,GAGTACACGTGGGAGT,0.03
23,ATTAACACGTGGGAAG,-0.01
24,CTTGACACGTGTAAGT,0.22
25,TTAGGCACGTGATGAA,-0.04
26,CATGTCACGTGGGGGA,-0.03

row,Sequence,relative binding free energy [kcal/mol]
1,GCCGTCACGTGCGGGG,-0.01
2,CGGTTCACGTGGCAGG,0.32
3,GGCTGCACGTGCGTGG,-0.16
4,GGGGGCACGTGGTGCT,-0.22
5,GCGGGCACGTGGTATG,-0.09
6,CGGCTCACGTGTGGTT,0.16
7,AATGGCACGTGCGGTG,-0.08
8,TTGGGCACGTGTGAGA,0.08
9,GATGTCACGTGGAGGG,0.26
10,AAGGGCACGTGTAGTT,-0.07
11,ATACTCACGTGAGTGT,0.28
12,AGATTCACGTGGTTAT,0.19
13,CATTACACGTGTTAGT,0.18
14,ATGCACACGTGGGGAT,-0.13
15,TGTAGCACGTGGAGTT,0.06
16,TAAGTCACGTGGTAAT,0.02
17,GGTGTCACGTGATAAA,0.21
18,TTTTTCACGTGTGCAA,0.23
19,CGGTACACGTGGGTGT,-0.17
20,ATTTTCACGTGGGAGG,0.12
21,TATTGCACGTGCGTGA,-0.11
22,GTTTACACGTGCTTGT,0.12
23,GTCGGCACGTGAGTAG,0.05
24,TTGTGCACGTGATCAT,0.11
25,GTGGACACGTGCGGCT,-0.08
26,AAAGTCACGTGGTGAT,0.14

row,Sequence,relative binding free energy [kcal/mol]
1,TGGAGCACGTGTGGTC,0.05
2,AATTTCACGTGTGCGG,0.16
3,TGTTCCACGTGGTTAG,-0.13
4,CTTTGCACGTGTGGAG,0
5,TTGACCACGTGGGGTT,-0.21
6,ATGGTCACGTGATAGA,0.21
7,AGGTGCACGTGGCTGT,-0.12
8,GTAGTCACGTGTTACG,0.17
9,AATCTCACGTGGATGG,0.33
10,CTAAGCACGTGGTTAG,-0.03
11,TTATCCACGTGTAAGT,0.14
12,CGAGGCACGTGGGATA,-0.22
13,GTCGCCACGTGGTGGG,-0.14
14,GTTTCCACGTGGTGAT,0.19
15,GCAGGCACGTGATGGG,0.08
16,ATTTACACGTGTTGGT,0.09
17,AGTGGCACGTGAAAGT,0.19
18,TAACTCACGTGGGATG,0.28
19,TTTTTCACGTGAGATG,0.41
20,TGGTACACGTGTAGAT,0.27
21,GGAGACACGTGATGGT,0.18
22,TGATTCACGTGCTTGT,0.31
23,TTGATCACGTGATTGC,0.22
24,TGTAGCACGTGGTTTC,-0.1
25,ATCATCACGTGGCGGG,0.19
26,GAAATCACGTGGGTGA,0.22

row,Sequence,relative binding free energy [kcal/mol]
1,AAGCTCACGTGAAGGT,0.39
2,ACGGACACGTGAGGGT,0.21
3,TCGGGCACGTGGTTAC,0.03
4,GGTGACACGTGTATCT,0.16
5,TTCGGCACGTGGGAGT,-0.22
6,CGGTCCACGTGCGGGT,-0.01
7,AGGGGCACGTGTGCAA,-0.1
8,GTTAGCACGTGTAGAT,0.04
9,CGGGGCACGTGGGCGT,-0.29
10,CAGGGCACGTGTGTCA,-0.03
11,CTAAGCACGTGGTAGG,-0.18
12,AATTTCACGTGAAGGG,0.34
13,GGCGTCACGTGAAGCG,0.41
14,TATTTCACGTGTTTAT,0.29
15,TGCTGCACGTGATTAT,0.09
16,TGGGCCACGTGCGCGG,-0.33
17,AAGGGCACGTGGCGTA,-0.4
18,ATGGTCACGTGGGTCT,-0.06
19,AAGTGCACGTGTTAGA,0.05
20,CGTCTCACGTGTGGAG,0.3
21,ATGAGCACGTGTGAGA,-0.11
22,GAATGCACGTGAATGG,0.16
23,GGGTCCACGTGTTAGG,0.05
24,GTATGCACGTGAGGTT,0.27
25,GTGGTCACGTGGAAAA,0.35
26,AAGGGCACGTGTGGCG,-0.12

row,Sequence,relative binding free energy [kcal/mol]
1,GCTTGCACGTGGTTAT,0.01
2,AGAAGCACGTGCTGGG,-0.16
3,TATATCACGTGTGGCC,0.49
4,GTGCTCACGTGAGGTG,0.32
5,TTGCTCACGTGATTTG,0.28
6,TTTATCACGTGGTAAA,0.23
7,GGGAGCACGTGTGGCA,-0.19
8,GTGTACACGTGTATGA,0.18
9,TCTGGCACGTGTAGGA,-0.14
10,TGTCGCACGTGCAAGG,-0.04
11,CAGTGCACGTGGAGAT,0.02
12,AGTGTCACGTGTGCGC,0.08
13,GCTTGCACGTGGGTGC,-0.12
14,GGGTACACGTGACGTA,0.35
15,AGTGACACGTGGTGTC,-0.12
16,GCGTTCACGTGGTTGG,0.3
17,GGTATCACGTGTAGTA,0.12
18,GAAGGCACGTGGTAGC,-0.06
19,GTTGACACGTGGCGTT,-0.1
20,GGTGTCACGTGCTAAG,0.09
21,ATGCGCACGTGTTGCG,-0.03
22,GATGGCACGTGTAGAG,0.04
23,TAGTTCACGTGAGATG,0.5
24,GGCTGCACGTGGAAGG,-0.03
25,AGGGCCACGTGTGGGA,-0.01
26,GTTTTCACGTGTTCAT,0.27

row,Sequence,relative binding free energy [kcal/mol]
1,TCAATCACGTGGTTAT,0.27
2,AGGGACACGTGGTGGC,-0.07
3,GTCATCACGTGGGGAT,0.02
4,ACCTGCACGTGGGGGT,-0.24
5,GTTTTCACGTGTCGTG,0.16
6,AGCGGCACGTGAAGGA,0.24
7,ATCTTCACGTGCGGGG,0.16
8,GCAGACACGTGGGTGG,-0.08
9,CGGGGCACGTGAATGT,0.21
10,GGAGACACGTGTGGCA,0.19
11,TGTGGCACGTGCCGAT,-0.12
12,TTGTTCACGTGGAGGG,0.28
13,TACTTCACGTGGGGTG,0.14
14,CGGGTCACGTGGCGGC,0.03
15,GGACTCACGTGGGTGG,0.1
16,GGGCGCACGTGTAGGG,-0.05
17,TGGTGCACGTGTGCCT,-0.09
18,AGGGGCACGTGAATAG,0.21
19,TTCTGCACGTGGCTGT,-0.18
20,TCGGGCACGTGAGATG,0.03
21,TTACACACGTGTTTTT,-0.03
22,CAAGGCACGTGGAGGC,-0.02
23,CGGTTCACGTGTGTCG,0.37
24,TCGATCACGTGGGCTT,0.09
25,TGGAGCACGTGTGAAA,0.13
26,ATGAGCACGTGGGGTA,-0.26

row,Sequence,relative binding free energy [kcal/mol]
1,TCATTCACGTGTGAGT,0.35
2,TGTTGCACGTGGTCGA,-0.18
3,CTGAGCACGTGATGGG,0
4,TATGTCACGTGACTGG,0.08
5,CGTGTCACGTGTCGGT,0.15
6,TCTGGCACGTGTTGCT,-0.14
7,TAGGTCACGTGTATAG,0.07
8,GCGGTCACGTGGAGAT,0.19
9,CATGTCACGTGTAGTG,0.18
10,AGGTTCACGTGCTTAT,0.18
11,GATATCACGTGTTATA,0.2
12,GGTGACACGTGGGGGA,-0.12
13,TTGCACACGTGCTTGT,-0.04
14,GGCGGCACGTGTAGCG,0.02
15,ATATGCACGTGATTTG,0.07
16,AGGATCACGTGGTGTA,0.04
17,TGGTGCACGTGATTCT,0.17
18,TTTTCCACGTGGGGAT,0.06
19,GTATGCACGTGTAGTC,0.14
20,TAGTTCACGTGTAGAA,0.14
21,CGGGTCACGTGAATGT,0.22
22,TGTTGCACGTGCGGAA,0
23,AAGGGCACGTGAAGAG,0.21
24,GGGCGCACGTGAGGAG,0.1
25,TGAGGCACGTGTTGAA,-0.09
26,TATCTCACGTGGGGTC,0.09

row,Sequence,relative binding free energy [kcal/mol]
1,GAGTACACGTGTTGGC,0.07
2,TAGATCACGTGTGATG,0.15
3,GGTATCACGTGGGCCG,0.08
4,GACTGCACGTGTTTGG,-0.1
5,AGGGTCACGTGAGGTA,0.34
6,GGGTTCACGTGCTGGT,0.4
7,ATTGACACGTGTGGTC,0.07
8,AGCTGCACGTGTCGGT,-0.05
9,GTGGTCACGTGCGCAT,0.08
10,AACTGCACGTGAGGGT,0.19
11,TGCTGCACGTGGTTGC,-0.04
12,CGGGTCACGTGAATGA,0.39
13,TCGGTCACGTGATTAG,0.16
14,AAGAGCACGTGTTTGG,-0.06
15,TGGTTCACGTGCATAT,0.22
16,TTGGGCACGTGGAGTC,0.06
17,GTAGGCACGTGTCATG,-0.11
18,CGGGGCACGTGGCGCG,-0.25
19,GGGAACACGTGGGAAT,0.04
20,TGTAACACGTGGCAGT,0.01
21,GTTGTCACGTGGATGT,0.17
22,TTTATCACGTGATGAA,0.18
23,CTTGGCACGTGTAAGT,0.05
24,CAGTTCACGTGTTAGT,0.28
25,GAAGGCACGTGGATAT,-0.05
26,GGGGTCACGTGGAGTC,0.24

row,Sequence,relative binding free energy [kcal/mol]
1,AAGGTCACGTGTGATG,0.21
2,GTTCTCACGTGGTAGT,0.22
3,GTTAGCACGTGCAGGG,-0.08
4,GTTTTCACGTGTTTTG,0.33
5,GTTGGCACGTGGCAGG,-0.11
6,GTTGACACGTGTGTAT,0.13
7,AGATACACGTGGATTG,0.1
8,GTGGGCACGTGGGGAT,-0.15
9,GTTTACACGTGGGCAA,0.12
10,AACTTCACGTGGTTGG,0.16
11,GTTGGCACGTGTGACT,0.02
12,AATAACACGTGGGTCG,-0.05
13,GGGGGCACGTGCCAGT,-0.33
14,ATGATCACGTGGTTTT,0.13
15,AATTTCACGTGTATGC,0.27
16,CGTAGCACGTGGTGCT,-0.13
17,GATGACACGTGGCTTT,0.12
18,TGCTTCACGTGGATTT,0.26
19,ACTTGCACGTGTTGCT,0.15
20,AACTTCACGTGGTATG,0.19
21,GTTCGCACGTGCTGGT,-0.04
22,TGTATCACGTGAGTAG,0.37
